Results are given in words; binding and its absence hold for the method and conditions named. Some results given as binding are weak or reduced against the parent protein; the word gives no strength.

Protein sequences, listed by entry. Tags and fused reporters are not part of them.
UniProt P63167: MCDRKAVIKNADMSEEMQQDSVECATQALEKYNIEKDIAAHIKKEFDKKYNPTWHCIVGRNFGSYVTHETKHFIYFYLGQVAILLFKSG

For the assay, the target named is dynein light chain LC8 (UniProt P63167). As to the kind of experiment: ITC; peptide (500 μM) injected into 25 μM LC8 in the cell; 25°C; 50 mM sodium phosphate, 50 mM NaCl, 1 mM sodium azide, 5 mM β-mercaptoethanol, pH 7.5; single-site model; averages of two to three experiments; both purified. A general note: In ITC the heat of successive injections is recorded.
As for CLKETLQITQTEVQ [NFYC peptide], the binding entry is listed as “no binding (tested: 500 μM peptide injected into 25 μM LC8)”.
The value for NQSFLRTPIQRTPH [SAV1 peptide] was “no binding (tested: 500 μM peptide injected into 25 μM LC8)”.
As for STQTPSPAPASDMP [bassoon (BSN) peptide exactly matching the ProP-PD hit, TQT motif at the N-terminus], the entry is “no binding (tested: 500 μM peptide injected into 25 μM LC8)”; as for DDNHWTRSTQTTRE [MUC4 peptide with N-terminal aspartates (…)], “binds”.
The value for MDDIFTQCREGN [ILK peptide] was “no binding (tested: 500 μM peptide injected into 25 μM LC8)”; that for PAPPSYSDKGVQTPSK [ZFPM1 peptide] was “binds”; that for KITFTKPSTQTTNT [EMSY peptide] was “no binding (tested: 500 μM peptide injected into 25 μM LC8)”.
YHHRILEAKSIQTSPT [FMN2 peptide]: the binding entry is listed as “no binding (tested: 500 μM peptide injected into 25 μM LC8)”.
The value for GQGAALTTATQTTHLE [GP1BA peptide] was “binds weakly”; that for YKIEIPTQCPSCGSK [DNLJ2 (phage T5) peptide] was “no binding (tested: 500 μM peptide injected into 25 μM LC8)”.
The value for SSRSAFSPLQPNAS [DMRTA2 peptide] was “no binding (tested: 500 μM peptide injected into 25 μM LC8)”.
The value for DDHSREKGTQTSGD [SLC9A2 peptide] was “binds”; that for TQDDYFKDKRVHHFRRS [DAZL peptide (272-288)] was “no binding (tested: 500 μM peptide injected into 25 μM LC8)”.
On to YGQIAPENGTQTPSP [ITGAX peptide], for which the binding entry was “no binding (tested: 500 μM peptide injected into 25 μM LC8)”.
The value for PVLTSATGTQTSPA [MUC3A peptide] was “binds”; that for VRTLPRFQTQVDRR [SCRN2 peptide (…)] was “no binding (tested: 500 μM peptide injected into 25 μM LC8)”.
The value for YDSMDHLDKQTQTPKT [CCL2 peptide] was “binds”.
The value for SPSPTGLPTQTPGF [ARAP3 peptide] was “binds weakly”.
In the case of RAAALPEETRSSRR [ZNF469 peptide], the binding result was “no binding (tested: 500 μM peptide injected into 25 μM LC8)”.
As for HPETQDSSTQTDTS [SPAG5 peptide], the entry is “binds”.
As for QDFMKHLDKKTQTPKL [CCL7 peptide], the entry is “binds”; as for DDSGGNATTQTTSD [ROR1 peptide], “binds weakly”.
As for SKTQQTFGSQTECT [TOGARAM1 peptide], the entry is “binds weakly”.
In the case of KHSGRQLTLQHHMG [CUL3 peptide], the binding result was “no binding (tested: 500 μM peptide injected into 25 μM LC8)”.
The value for SFRHPGYSTQTHVN [KLK7 peptide] was “no binding (tested: 500 μM peptide injected into 25 μM LC8)”.
As for ITSYNSQGTQLTVE [KY peptide], the entry is “no binding (tested: 500 μM peptide injected into 25 μM LC8)”; as for ARAGRSVSTQTGSM [CIZ1 peptide], “binds”; as for YGCTRHQSVQTEDG [MAST1 peptide], “binds”.
Consider YELMASLDQPTQTVVM [EIF3C peptide], for which the binding entry was “no binding (tested: 500 μM peptide injected into 25 μM LC8)”.
The value for PLQATISKSQTNPV [UBN2 peptide] was “no binding (tested: 500 μM peptide injected into 25 μM LC8)”; that for TTLPVLTSTATKST [MUC5B-1 peptide] was “no binding (tested: 500 μM peptide injected into 25 μM LC8)”; that for DFTPAFADFGRQTPGG [EIF4G3 peptide] was “no binding (tested: 500 μM peptide injected into 25 μM LC8)”.
As for PRATAEFSTQTPSP [bassoon (BSN) peptide, modified version with the TQT motif near the C-terminus], the entry is “binds”; as for EGYRGTANTTTAAYLA [MSTL1 peptide], “no binding (tested: 500 μM peptide injected into 25 μM LC8)”; as for TEAKDQCSTQTDFN [EPAS1 peptide], “no binding (tested: 500 μM peptide injected into 25 μM LC8)”.
The value for TPTPTPTGTQTPTT [MUC2 peptide] was “no binding (tested: 500 μM peptide injected into 25 μM LC8)”; that for KSVAENGDTDTQTSMF [ZZZ3 peptide] was “no binding (tested: 500 μM peptide injected into 25 μM LC8)”; that for NKVFAKLHHNTQTFQA [CCL25 peptide] was “no binding (tested: 500 μM peptide injected into 25 μM LC8)”.
With TLQQPLELTASQLPAG [OTOG peptide], the binding result is recorded as “no binding (tested: 500 μM peptide injected into 25 μM LC8)”.
The value for RSFVLPVESTQDVSSQ [CRYBG1 peptide] was “no binding (tested: 500 μM peptide injected into 25 μM LC8)”; that for SQNHWTRSTQTTRE [MUC4 peptide (…)] was “binds”.
The value for LQETLTTSSQANLS [PPP2R3A peptide] was “no binding (tested: 500 μM peptide injected into 25 μM LC8)”; that for LPRKVDTAAQTNSR [IRS1 peptide] was “no binding (tested: 500 μM peptide injected into 25 μM LC8)”; that for AASLIQKMLQTDPTAR [PLK1 peptide] was “no binding (tested: 500 μM peptide injected into 25 μM LC8)”.
The value for YPQKKSVDRSIQTVVS [DAZL peptide (243-257)] was “no binding (tested: 500 μM peptide injected into 25 μM LC8)”; that for DDTLPRFQTQVDRR [SCRN2 peptide with N-terminal aspartates (…)] was “no binding (tested: 500 μM peptide injected into 25 μM LC8)”.
As to YGPDGEETETQTCPP [PRSS36 peptide], the binding result is listed as “no binding (tested: 500 μM peptide injected into 25 μM LC8)”.
In the case of DDHSGNAQVTQTKFD [DDX1 peptide], the binding result is listed as “no binding (tested: 500 μM peptide injected into 25 μM LC8)”.
As for SSSTRSIDTQTPSV [GLCCI1 peptide], the entry is “binds”; as for EKELRHIGTQISSD [ICE1 peptide], “binds”.
As for NQSFTTASTQTPPQ [CAPRIN2 peptide], the entry is “binds”; as for DERLMCTGSQTFDD [EFL1 peptide], “no binding (tested: 500 μM peptide injected into 25 μM LC8)”; as for AKESCNMETQTSST [OFD1 peptide], “binds”.
The value for KTLTFSGSSQTVTP [QSER1 peptide] was “no binding (tested: 500 μM peptide injected into 25 μM LC8)”.
With IVSCVSVSTQTASD [KMT2C peptide], the binding result is recorded as “no binding (tested: 500 μM peptide injected into 25 μM LC8)”.
